Laboratory results: the supplement of paper PMC8728848
The other results are listed elsewhere or left out.

Tests used:
Experiment in all cases: glycan array binding signal (z-score within array); higher = stronger binding
Conditions in all cases: glycan notation: IUPAC condensed, linker removed
[1] = target: Gal3S(b1-4)Glc
Method in brief: (§1)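 From the Consortium for Functional Glycomics database, 3228 arrays were curated, keeping only those whose protein sequence was available. Binding is given as a within-array Z-score averaged across arrays sharing a protein sequence and across linkers. Negative Z-scores can be read as non-binding.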

[2] = target: Gal3S(b1-4)Glc6S
Method in brief: as §1

[3] = target: Gal3S(b1-4)GlcNAc
Method in brief: as §1

[4] = target: Gal3S(b1-4)[Fuc(a1-3)]Glc6S
Method in brief: as §1

[5] = target: Gal3S(b1-4)[Fuc(a1-3)]GlcNAc
Method in brief: as §1

[6] = target: Gal3S(b1-4)[Fuc(a1-3)]GlcNAc6S
Method in brief: as §1

[7] = target: Gal3S4S(b1-4)GlcNAc
Method in brief: as §1

[8] = target: Gal3S6S(b1-4)GlcNAc
Method in brief: as §1

[9] = target: Gal3S6S(b1-4)GlcNAc6S
Method in brief: as §1

[10] = target: Gal4S(b1-4)GlcNAc
Method in brief: as §1

[11] = target: Gal4S6S(b1-4)GlcNAc
Method in brief: as §1

[12] = target: Gal6P(b1-4)GlcNAc
Method in brief: as §1

[13] = target: Gal6S(b1-3)GlcNAc
Method in brief: as §1

[14] = target: Gal6S(b1-3)GlcNAc6S
Method in brief: as §1

[15] = target: Gal6S(b1-4)Glc
Method in brief: as §1

[16] = target: Gal6S(b1-4)Glc6S
Method in brief: as §1

[17] = target: Gal6S(b1-4)GlcNAc
Method in brief: as §1

[18] = target: Gal6S(b1-4)GlcNAc6S
Method in brief: as §1

[19] = target: GalNAc(a1-3)Gal
Method in brief: as §1

[20] = target: GalNAc(a1-3)GalNAc
Method in brief: as §1

[21] = target: GalNAc(a1-3)GalNAc(b1-3)Gal(a1-4)Gal(b1-4)Glc
Method in brief: as §1

[22] = target: GalNAc(a1-3)GalNAc(b1-3)Gal(a1-4)Gal(b1-4)GlcNAc
Method in brief: as §1

[23] = target: GalNAc(b1-3)Gal
Method in brief: as §1

[24] = target: GalNAc(b1-3)Gal(a1-4)Gal(b1-4)GlcNAc
Method in brief: as §1

[25] = target: GalNAc(b1-3)Gal(a1-4)Gal(b1-4)GlcNAc(b1-3)Gal(b1-4)Glc
Method in brief: as §1

[26] = target: GalNAc(b1-3)Gal(a1-6)Gal(b1-4)Glc
Method in brief: as §1

[27] = target: GalNAc(b1-3)GalNAc
Method in brief: as §1

[28] = target: GalNAc(b1-3)GlcNAc
Method in brief: as §1

[29] = target: GalNAc(b1-4)Gal(b1-4)Glc
Method in brief: as §1

[30] = target: GalNAc(b1-4)GlcNAc
Method in brief: as §1

[31] = target: GalNAc(b1-4)GlcNAc(b1-2)Man
Method in brief: as §1

[32] = target: GalNAc(b1-4)GlcNAc(b1-2)Man(a1-3)[GalNAc(b1-4)GlcNAc(b1-2)Man(a1-6)]Man(b1-4)GlcNAc(b1-4)GlcNAc
Method in brief: as §1

[33] = target: GalNAc(b1-4)GlcNAc(b1-3)GalNAc(b1-4)GlcNAc
Method in brief: as §1

[34] = target: GalNAc(b1-4)GlcNAc6S
Method in brief: as §1

[35] = target: GalNAc(b1-6)GalNAc
Method in brief: as §1

[36] = target: GalNAc3S(b1-4)GlcNAc
Method in brief: as §1

[37] = target: GalNAc3S(b1-4)GlcNAc3S
Method in brief: as §1

B1: SP16665A-bot-344-23-344 (Bacteroides ovatus) (protein)
chain: SDNEFPDFDYQTVYFANQYGLRTIELGESEFVDNTLDNQHKMVIKAAWGGGYTNRNNVVINFKVDESLCDNLYFKDTDQPLVPMPASYYTLASDRIAIPKGQIMAGVEVQLTDDFFADEKSISENYVIPLLMTNVQGADSILQGKPVVENPVLTNAGDWSILPQNFVLYAVKYVNPWHGEYLRRGIDHATVAGTSKDIIRHEQFVENDEVVNISTKSMKDNLLTLKTKDESGKDISYTVRLSFAEDGSCTVHSGSQNVVVSGSGKFVSKGEKNSLGGKDRNAIYLDYTVNLTDNNIQLATKDTLVLRTRNVYGGKSLEVVRK
B1 was tested, and the “glycan array binding signal (z-score)” value [1] was 0.257, the “glycan array binding signal (z-score)” value [2] was -0.049 and the “glycan array binding signal (z-score)” value [3] was -0.26. For the same binder, the “glycan array binding signal (z-score)” value [4] was 0.627, the “glycan array binding signal (z-score)” value [5] was -0.285 and the “glycan array binding signal (z-score)” value [6] was 0.244. For the same binder, the “glycan array binding signal (z-score)” value [7] was 0.201, the “glycan array binding signal (z-score)” value [8] was -0.342 and the “glycan array binding signal (z-score)” value [9] was 0.111. The “glycan array binding signal (z-score)” value [10] was 0.159, the “glycan array binding signal (z-score)” value [11] was -0.453 and the “glycan array binding signal (z-score)” value [12] was -0.354. The “glycan array binding signal (z-score)” value [13] was -0.111, the “glycan array binding signal (z-score)” value [14] was -0.062 and the “glycan array binding signal (z-score)” value [15] was 0.17. For the same binder, the “glycan array binding signal (z-score)” value [16] was 0.024, the “glycan array binding signal (z-score)” value [17] was -0.335 and the “glycan array binding signal (z-score)” value [18] was 0.157. For the same binder, the “glycan array binding signal (z-score)” value [19] was 0.558, the “glycan array binding signal (z-score)” value [20] was 1.35 and the “glycan array binding signal (z-score)” value [21] was -0.02. For the same binder, the “glycan array binding signal (z-score)” value [22] was -0.21, the “glycan array binding signal (z-score)” value [23] was -0.419 and the “glycan array binding signal (z-score)” value [24] was 0.107. For the same binder, the “glycan array binding signal (z-score)” value [25] was -0.168, the “glycan array binding signal (z-score)” value [26] was -0.042 and the “glycan array binding signal (z-score)” value [27] was 0.046. The “glycan array binding signal (z-score)” value [28] was 0.254, the “glycan array binding signal (z-score)” value [29] was -0.085 and the “glycan array binding signal (z-score)” value [30] was 1.18. For the same binder, the “glycan array binding signal (z-score)” value [31] was -0.103, the “glycan array binding signal (z-score)” value [32] was 1.54 and the “glycan array binding signal (z-score)” value [33] was 0. The “glycan array binding signal (z-score)” value [34] was -0.085, the “glycan array binding signal (z-score)” value [35] was -0.485 and the “glycan array binding signal (z-score)” value [36] was -0.022. For the same binder, the “glycan array binding signal (z-score)” value [37] was -0.114.
